The supplement of paper PMC3334620
Over roughly 33,000 sequences, “E-score (-0.5 to 0.5)” has its median near -0.036; the highest 2% begin near 0.37. Some of the results follow.

Each sequence was assayed against T1, Yer064c (UniProt P40041) (assay: PBM E-score (8-mer binding enrichment) (E-score (-0.5 to 0.5)); higher = stronger / more preferred TF binding; most listed sequences are background and not binding sites). Details: protein concentration: 200 nM; construct: GST-full length.
T1 sequence: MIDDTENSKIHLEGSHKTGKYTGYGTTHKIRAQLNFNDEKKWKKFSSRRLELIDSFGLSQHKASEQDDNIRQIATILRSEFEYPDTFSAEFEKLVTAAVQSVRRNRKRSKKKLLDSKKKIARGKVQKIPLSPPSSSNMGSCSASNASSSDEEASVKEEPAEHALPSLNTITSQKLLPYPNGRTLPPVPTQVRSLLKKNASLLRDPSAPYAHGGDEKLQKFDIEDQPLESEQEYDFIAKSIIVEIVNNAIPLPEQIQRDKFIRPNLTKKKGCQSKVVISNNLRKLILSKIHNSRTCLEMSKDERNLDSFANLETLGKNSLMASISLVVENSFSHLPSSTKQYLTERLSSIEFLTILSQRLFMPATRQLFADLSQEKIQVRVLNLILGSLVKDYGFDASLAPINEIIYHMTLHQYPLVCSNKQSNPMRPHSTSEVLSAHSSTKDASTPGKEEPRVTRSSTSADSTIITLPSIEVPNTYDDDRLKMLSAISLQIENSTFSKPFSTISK
How it was run: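 The E-score, a modified Wilcoxon-Mann-Whitney statistic, was computed by the Universal PBM Analysis Suite for every ungapped eight-base word pooled with its reverse complement. Scans behind it were normalised with masliner after bound GST-tagged yeast transcription factors were detected with fluorescent anti-GST. The proteins, at about 100-200 nM, had been applied to universal all-10-mer Agilent arrays made double-stranded by primer extension.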

| Sequence | PBM E-score |
| --- | --- |
| CTATTATA | 0.0728 |
| AACAGGAA | -0.16 |
| CATCTGTC | -0.216 |
| CCCAAATC | 0.1 |
| CCAGTCCA | -0.145 |
| ATCACTCG | 0.154 |
| CCAGGATC | -0.0208 |
| CCTAAAGG | -0.201 |
| GTTTTAGA | 0.16 |
| AGCTGCAG | -0.103 |
| AGACTGCA | 0.201 |
| AGCAGGTC | -0.237 |
| AGTAAACG | -0.0215 |
| CAAATCAC | 0.152 |
| AGATGCCT | -0.048 |
| CGATGAAA | 0.0671 |
| CATATGGG | -0.0539 |
| GCCTCCGC | -0.334 |
| CCTCGGAC | -0.143 |
| ACTCGACG | 0.0733 |
| GCGCCAAA | -0.188 |
| GTCGCACA | 0.0618 |

| Sequence | PBM E-score |
| --- | --- |
| GCCGTCCC | -0.159 |
| CCGATTAA | 0.0747 |
| CGTAACCC | -0.119 |
| AATACTTC | 0.00573 |
| CATTGTCC | -0.0933 |
| ACATCGTC | 0.0853 |
| ACCTCTAC | -0.188 |
| GGACCCCA | -0.11 |
| CGGTGCAG | -0.0907 |
| CAACTTTC | -0.27 |
| GAGAGGTA | -0.182 |
| GTTAACAA | 0.0813 |
| CTCTTTGC | -0.0733 |
| AACAGTTC | -0.0607 |
| CTCGACCC | -0.0167 |
| TATCTGAA | -0.045 |
| AAGACGGA | 0.0413 |
| AATTTCGA | -0.0618 |
| ATAGGAGC | -0.112 |
| GAAGAGAA | -0.0781 |
| CTAGACAC | 0.107 |
| GTAGATTA | 0.142 |

| Sequence | PBM E-score |
| --- | --- |
| TGCAGGAA | 0.0166 |
| AAAAACCG | -0.2 |
| ATAGGCTA | -0.102 |
| CCTAATTC | 0.0319 |
| CACCTCCA | -0.03 |
| CACGTGCG | -0.219 |
| TAACAACA | -0.113 |
| ATTAGCCG | -0.106 |
| CTTGTTGC | 0.138 |
| ACCATAGC | 0.0386 |
| AAAAATTC | -0.247 |
| ACACGTTA | 0.0113 |
| AAAAGCAC | -0.059 |
| CATGGGTA | 0.209 |
| ATAATCAG | 0.33 |
| CGTATGAC | 0.315 |
| GTCTGGTA | 0.0342 |
| GAGGACCC | -0.199 |
| GGCTCGAA | -0.139 |
| TCTACCCA | 0.102 |
| GATGAAGC | -0.151 |
| AAGCCTGC | -0.242 |

| Sequence | PBM E-score |
| --- | --- |
| CCGCTGTC | -0.226 |
| CACGTAAG | -0.109 |
| AAATACTA | 0.0115 |
| AAATTTGC | -0.0833 |
| TATACCGA | 0.0725 |
| CCAGCAAA | 0.0166 |
| ATTGACAA | 0.0616 |
| CAATAGGG | -0.0435 |
| ATAGCTGG | -0.145 |
| AGGGGCGG | -0.302 |
| ACCTAGCG | -0.0927 |
| AAACCCAC | -0.0498 |
| ACATTGTC | 0.0147 |
| CGAGTCCC | 0.24 |
| GTTTAAGA | 0.245 |
| ACAATTGA | 0.042 |
| ACGCAGAA | 0.0383 |
| ACCGCAGC | -0.157 |
| AGTTTGAA | 0.132 |
| CTCTCAGC | -0.146 |
